Test results: publication PMC4336329 (PLoS ONE, 2015)
Hit rate of the full screen: of about 310,000 compounds, about 14,000 (4.5%) showed an effect of 50% or more. The effect is printed as a negative number. The list shows a part of the results.

biological target: human ether-à-go-go-related gene (hERG) potassium channel (human, UniProt Q12809); experiment: primary screen, population patch clamp on CHO cells stably expressing hERG
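Note: peak tail current of the secondary pulse compared with the same well before compound.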

Sequence of human ether-à-go-go-related gene (hERG) potassium channel (Q12809 whole entry, looked up): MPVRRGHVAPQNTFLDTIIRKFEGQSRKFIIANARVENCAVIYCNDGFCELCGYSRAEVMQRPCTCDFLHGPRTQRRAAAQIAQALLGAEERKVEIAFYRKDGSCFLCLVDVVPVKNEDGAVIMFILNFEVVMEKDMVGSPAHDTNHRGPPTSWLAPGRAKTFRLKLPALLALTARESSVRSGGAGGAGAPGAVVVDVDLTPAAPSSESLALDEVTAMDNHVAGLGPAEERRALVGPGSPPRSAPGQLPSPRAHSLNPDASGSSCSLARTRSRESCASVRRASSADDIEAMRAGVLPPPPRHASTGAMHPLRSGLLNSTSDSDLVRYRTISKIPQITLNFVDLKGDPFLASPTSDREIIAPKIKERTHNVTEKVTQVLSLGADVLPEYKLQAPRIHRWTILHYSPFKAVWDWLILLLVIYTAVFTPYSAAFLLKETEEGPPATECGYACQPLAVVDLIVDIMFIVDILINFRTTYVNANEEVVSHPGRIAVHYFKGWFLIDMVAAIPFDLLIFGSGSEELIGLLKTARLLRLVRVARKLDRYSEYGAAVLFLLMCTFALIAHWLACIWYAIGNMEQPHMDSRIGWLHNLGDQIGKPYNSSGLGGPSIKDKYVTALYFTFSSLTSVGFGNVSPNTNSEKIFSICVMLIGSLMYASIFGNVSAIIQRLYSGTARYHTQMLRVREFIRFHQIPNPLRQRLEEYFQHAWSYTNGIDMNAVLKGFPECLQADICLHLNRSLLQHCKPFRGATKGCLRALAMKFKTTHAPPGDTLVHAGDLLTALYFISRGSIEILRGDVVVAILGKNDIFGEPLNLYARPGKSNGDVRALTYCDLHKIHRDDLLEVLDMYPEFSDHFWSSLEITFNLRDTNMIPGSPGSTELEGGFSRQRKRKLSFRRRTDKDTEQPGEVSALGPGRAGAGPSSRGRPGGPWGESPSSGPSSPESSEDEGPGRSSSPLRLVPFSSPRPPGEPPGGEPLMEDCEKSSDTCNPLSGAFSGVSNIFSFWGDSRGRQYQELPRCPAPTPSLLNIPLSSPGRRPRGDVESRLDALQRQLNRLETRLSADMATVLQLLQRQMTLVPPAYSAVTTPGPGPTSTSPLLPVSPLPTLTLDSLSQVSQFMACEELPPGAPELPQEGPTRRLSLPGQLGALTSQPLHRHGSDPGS

**Q.** For `Cn1c(=O)c2c(nc(NCCc3ccccc3)n2Cc2ccc(F)cc2)n(C)c1=O`, which “hERG current change (%, negative = inhibition) at 10uM” value is on record?
**A.** The value was -7.62%.

**Q.** With `O=C(CCCc1ccccc1)Nc1ccc(Br)cc1F` as the molecule, how does the “hERG current change (%, negative = inhibition) at 10uM” value read?
**A.** Its value is 14.4%.

**Q.** How did the “hERG current change (%, negative = inhibition) at 10uM” value turn out when `CS(=O)(=O)N(CC(=O)N/N=C/c1ccco1)c1ccccc1Br` was run?
**A.** The value was -3.68%.

**Q.** Which “hERG current change (%, negative = inhibition) at 10uM” value does the source give for `CSc1ccc(C(=O)C2CCCN(Cc3cc4ccccc4[nH]3)C2)cc1` (centres unmarked) here?
**A.** Its value is -48.8%.

**Q.** For `S=C(N/N=C/c1ccc(Cl)c(Cl)c1)Nc1ccccc1Cl`, which “hERG current change (%, negative = inhibition) at 10uM” value is on record?
**A.** The value was -15%.

**Q.** With `Cc1ccc(Sc2c(C)[nH]n(C(C)(C)C)c2=O)cc1` as the molecule, how does the “hERG current change (%, negative = inhibition) at 10uM” value read?
**A.** The value was -3.51%.

**Q.** Which “hERG current change (%, negative = inhibition) at 10uM” value does the source give for `Cc1cc(N2C(=O)C(O)=C(C(=O)c3cc4ccccc4o3)C2c2ccc(Br)cc2)no1` (centres unmarked) here?
**A.** Its value is 13.3%.

**Q.** For `CCC1(c2ccccc2)NC(=O)N(CC(=O)N2CCN(S(=O)(=O)c3ccccc3)CC2)C1=O` (centres unmarked), which “hERG current change (%, negative = inhibition) at 10uM” value is on record?
**A.** The value was -0.341%.

**Q.** `Cc1ccc(Cc2ccc(C(=O)NNC(N)=S)o2)cc1` was tested. Which “hERG current change (%, negative = inhibition) at 10uM” value did it give?
**A.** The value was 5.86%.

**Q.** `C=CCS(=O)(=O)N1CCCC(N(C)CCc2ccc(OC)c(OC)c2)C1` (centres unmarked) was tested. Which “hERG current change (%, negative = inhibition) at 10uM” value did it give?
**A.** Its value is -16.1%.

**Q.** How did the “hERG current change (%, negative = inhibition) at 10uM” value turn out when `COCCN(Cc1cc2cc3c(cc2nc1Cl)OCO3)C(=O)Nc1ccc(OC)cc1` was run?
**A.** Its value is 14.7%.

**Q.** Which “hERG current change (%, negative = inhibition) at 10uM” value does the source give for `CCOC(=O)NC(=O)c1cn(Nc2ncc(C(F)(F)F)cc2Cl)c(=O)[nH]c1=O` here?
**A.** The value was 6.5%.

**Q.** Which “hERG current change (%, negative = inhibition) at 10uM” value does the source give for `O=C(CC1S/C(=N\S(=O)(=O)c2ccc(F)cc2)N(c2ccccc2)C1=O)Nc1ccccc1` (centres unmarked) here?
**A.** The value was 18.8%.

**Q.** For `C=CP(=O)(O)c1ccccc1`, which “hERG current change (%, negative = inhibition) at 10uM” value is on record?
**A.** Its value is 17%.

**Q.** For `CC(=O)Nc1cc[n+](CC(=O)c2ccc(Cl)cc2)cc1.[Br-]`, which “hERG current change (%, negative = inhibition) at 10uM” value is on record?
**A.** Its value is 15%.

**Q.** For `COC(=O)C(CC(C)C)NC(=O)c1cc(OC)c(OC)c(OC)c1` (centres unmarked), which “hERG current change (%, negative = inhibition) at 10uM” value is on record?
**A.** Its value is -1.83%.

**Q.** For `COc1ccc(N2C(=O)C3C(C2=O)C2C=CC3C23CC3)c([N+](=O)[O-])c1` (centres unmarked), which “hERG current change (%, negative = inhibition) at 10uM” value is on record?
**A.** The value was 1.25%.

**Q.** How did the “hERG current change (%, negative = inhibition) at 10uM” value turn out when `Cc1cccc(-c2nnc(SCCOc3ccc4c(C)cc(=O)oc4c3)o2)c1` was run?
**A.** Its value is -9.93%.

**Q.** With `CC(Oc1cccc(Cl)c1)C(=O)Nc1cc(S(=O)(=O)N2CCCCC2)ccc1N1CCOCC1` (centres unmarked) as the molecule, how does the “hERG current change (%, negative = inhibition) at 10uM” value read?
**A.** Its value is -8.24%.

**Q.** How did the “hERG current change (%, negative = inhibition) at 10uM” value turn out when `CCOC(=O)N1CCC2(CC1)C(C#N)=C(N)Oc1n[nH]c(C)c12` was run?
**A.** The value was 0.62%.

**Q.** `COc1ccccc1-c1cc(C(=O)Nc2cccnc2Cl)no1` was tested. Which “hERG current change (%, negative = inhibition) at 10uM” value did it give?
**A.** The value was 1.69%.

**Q.** Which “hERG current change (%, negative = inhibition) at 10uM” value does the source give for `O=C(Nc1ccccc1OC(=O)N1CCCCC1)N1CCCCC1` here?
**A.** The value was 12.2%.

**Q.** `Cc1cccc(N/C=C/c2onc(C)c2[N+](=O)[O-])c1` was tested. Which “hERG current change (%, negative = inhibition) at 10uM” value did it give?
**A.** Its value is 5.88%.

**Q.** With `COc1cc(Nc2nc(-c3ccccc3)c3cc(C)ccc3n2)cc(OC)c1OC` as the molecule, how does the “hERG current change (%, negative = inhibition) at 10uM” value read?
**A.** Its value is -5.01%.

**Q.** Which “hERG current change (%, negative = inhibition) at 10uM” value does the source give for `CCN(CC)c1nc(N)n(CCSC(=S)N(C)C)c(=O)n1` here?
**A.** Its value is -4.98%.

**Q.** Which “hERG current change (%, negative = inhibition) at 10uM” value does the source give for `O=C(O)CCCNc1c(C(=O)Nc2ccc(Cl)cc2)cc([N+](=O)[O-])cc1[N+](=O)[O-]` here?
**A.** The value was 30.7%.

**Q.** With `Fc1ccccc1NC(=S)Nc1cccnc1` as the molecule, how does the “hERG current change (%, negative = inhibition) at 10uM” value read?
**A.** Its value is 10.3%.

**Q.** For `O=C(NC(=S)Nc1cccc(S(=O)(=O)NC2=NCCC2)c1)c1cc(-c2ccco2)nc2ccccc12`, which “hERG current change (%, negative = inhibition) at 10uM” value is on record?
**A.** The value was 6.22%.

**Q.** For `O=C(C1CCC(=O)N(C2CCCC2)C1)N1CCC(Oc2ccccc2Cl)CC1` (centres unmarked), which “hERG current change (%, negative = inhibition) at 10uM” value is on record?
**A.** Its value is -62.1%.

**Q.** `Cc1cc(C(=O)CSc2nc3ccccc3[nH]2)c(C)n1CC1CCCO1` (centres unmarked) was tested. Which “hERG current change (%, negative = inhibition) at 10uM” value did it give?
**A.** Its value is -12.5%.

**Q.** Which “hERG current change (%, negative = inhibition) at 10uM” value does the source give for `O=C(Cc1ccccc1)N1CCN(Cc2cccc(Br)c2)CC1.O=C(O)C(=O)O` here?
**A.** Its value is -33.7%.

**Q.** For `O=C(NNS(=O)(=O)c1ccc([N+](=O)[O-])cc1)c1ccncc1`, which “hERG current change (%, negative = inhibition) at 10uM” value is on record?
**A.** The value was 22.1%.

**Q.** With `Cc1ccc(-n2c(SCC(=O)Nc3ccc4c(c3)OCO4)nnc2-c2cccs2)cc1` as the molecule, how does the “hERG current change (%, negative = inhibition) at 10uM” value read?
**A.** Its value is -21%.

**Q.** How did the “hERG current change (%, negative = inhibition) at 10uM” value turn out when `COC(=O)c1ccc(/C=C2/SC(=S)N(CCCC(=O)Nc3ccccn3)C2=O)cc1` was run?
**A.** Its value is 15.4%.

**Q.** For `CCc1sc(C(=O)N2CCN(c3ncccn3)CC2)cc1Br`, which “hERG current change (%, negative = inhibition) at 10uM” value is on record?
**A.** Its value is 4.48%.

**Q.** Which “hERG current change (%, negative = inhibition) at 10uM” value does the source give for `N#C/C(=C\c1cn(Cc2ccccc2)c2ccccc12)C(=O)NCc1ccco1` here?
**A.** Its value is 12.5%.

**Q.** How did the “hERG current change (%, negative = inhibition) at 10uM” value turn out when `Fc1ccc2c(c1)C(c1ccncc1)=NNC(c1ccccc1)=N2` was run?
**A.** Its value is 11.1%.

**Q.** How did the “hERG current change (%, negative = inhibition) at 10uM” value turn out when `Cc1cc(C)cc(NC(=S)N2CCN(c3ncccn3)CC2)c1` was run?
**A.** Its value is 13%.

**Q.** How did the “hERG current change (%, negative = inhibition) at 10uM” value turn out when `O=C(c1ccccc1Br)N1CCN(c2ccccn2)CC1` was run?
**A.** Its value is 9.41%.

**Q.** How did the “hERG current change (%, negative = inhibition) at 10uM” value turn out when `CCn1nnnc1SCC(=O)N(C)C1CCS(=O)(=O)C1` (centres unmarked) was run?
**A.** The value was 1.37%.

**Q.** For `COc1ccc(-c2cc(=NC(CC(C)C)C(=O)O)c3cc(C)ccc3o2)cc1` (centres unmarked), which “hERG current change (%, negative = inhibition) at 10uM” value is on record?
**A.** Its value is -56.5%.

**Q.** `CC(=O)c1ccc(Oc2ncnc3sccc23)cc1` was tested. Which “hERG current change (%, negative = inhibition) at 10uM” value did it give?
**A.** The value was 19.5%.

**Q.** With `COc1ccc(C[C@H]2CN3C(=NC[C@@H]3Cc3ccc(O)cc3)N2C[C@H](C)NC(=O)c2ccc(C)c(Br)c2)cc1` as the molecule, how does the “hERG current change (%, negative = inhibition) at 10uM” value read?
**A.** The value was -77.9%.

**Q.** With `COc1ccc(-n2c(C)nc3c(cnn3-c3ccccc3)c2=O)cc1` as the molecule, how does the “hERG current change (%, negative = inhibition) at 10uM” value read?
**A.** The value was -6.78%.
